Experimental data as given in publication PMC10726135.
The list shows a part of the results. At the low end of the ranking the order means little. The protein was read in a cell extract, so binding may be indirect.

Molecular target: T1, HNF4alpha8 (COS-7 nuclear extract) (UniProt P41235-5)
T1 sequence: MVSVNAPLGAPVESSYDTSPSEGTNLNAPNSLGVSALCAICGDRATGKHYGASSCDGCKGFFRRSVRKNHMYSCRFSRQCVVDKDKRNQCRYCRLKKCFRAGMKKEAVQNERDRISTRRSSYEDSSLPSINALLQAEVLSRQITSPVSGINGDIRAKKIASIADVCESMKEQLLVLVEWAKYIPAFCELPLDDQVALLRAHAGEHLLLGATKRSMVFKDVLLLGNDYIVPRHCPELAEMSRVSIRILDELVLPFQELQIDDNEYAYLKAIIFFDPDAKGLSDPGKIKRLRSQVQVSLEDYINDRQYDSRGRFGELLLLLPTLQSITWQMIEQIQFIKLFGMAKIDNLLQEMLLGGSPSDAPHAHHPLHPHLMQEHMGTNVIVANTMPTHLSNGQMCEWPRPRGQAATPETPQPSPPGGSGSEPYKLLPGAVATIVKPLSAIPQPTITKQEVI
Test: protein-binding microarray
Settings: COS-7 nuclear extract on double-stranded Agilent 4x180k PBM; binding buffer, salt, pH and temperature not given; high values mean tight binding; double strand, one strand shown; sequences stand for … in …GCCTAGGGAGATTAGAGTATCGGTCGA

| Sequence | binding signal (log2 normalized intensity) |
| --- | --- |
| TTTTAGATTAGGAGAGGGAGAGTGAGTGAG | -1.39 |
| GGCAGTGTGGCACCCTCCCTTCCCGGGGAG | -1.22 |
| GAGAGGAGAAAGAGCAATCTCTCATCTGCC | -1.26 |
| TTATCATAAGTCAGCCTGGCTGAAGACCTG | -0.92 |
| ACAGAGAGAAAGCAGTGACCATCCCAAAGC | -1.34 |
| AAGTAAGCAGACACTGAAAGATGGTATGCT | -1.29 |
| GCTGCCAATGCAAATCCCAGAGTTCAAAGG | 5.13 |
| TGCTTAACTATGTTTATCAGAGCAAAGTTC | 4.15 |
| GACCCTGAAAACAGGGCAAGGAACGGAATG | 0.939 |
| GCGTTTTTCTTTGTACTGCTTCCAAAACAT | 0.626 |
| TAGAAGGCTTAAGATAAGGGACATCAACAA | -1.45 |
| TTCCATGCAGCAGCATCCAGCCCCAGGCTG | -1.32 |
| TCTGTACAAAACATTTGGTGTAAGCACTTG | 0.477 |
| ACCTACAGCTGGGGCCACCTTTTCAGCTTC | -1.29 |
| TCCCTCCCCTGTGCAAACTTTTTCCTTTTC | 1.89 |
| CCTAGAGTTACAGTCACTCCCTATCAACCA | -1.34 |
| GGAGGCTGGGGCCTCCTGGCTGGGCAGGCT | -1.37 |
| TGCCTAGTGGAAGGTATGGAGCTAAACAAT | -1.32 |
| AGCTTCAGGGATCAAATCCTAACATGCTGC | -1.35 |
| ACCTTGACCCAAGAAATAAAAACAGCTGGG | -1.32 |
| TGCATCAAACAGCTTAGGGTTCAAACTCCA | 4.54 |
| GAGAAAGAGACAGAGAGAGAGAGAGAATGA | -1.16 |
| GGCAAACATTTGCGCAAACATAAAGGCAAA | -1.35 |
| TGTTCTTTACTTCCTTTTGTTCCTGCTCTA | 1.67 |
| ATCACTGAATCGAGGCTATTCTGTAACACA | -1.27 |

| Sequence | binding signal (log2 normalized intensity) |
| --- | --- |
| ACACACACATACACACACACACACACACAT | -1.31 |
| ATCTTATCTAGTTTCCTAGCTCACTGATAA | -1.34 |
| AGGGGGAATGCCAACAGGTCAGGGAGTAGG | -1.43 |
| CAAAGGTCATGTTTTCAAACAATGAGAGGC | 3.64 |
| GATAAAGGAACAGGCCCCAGGGACTTTGGC | 2.06 |
| TTCTACAGTGTTTACCGGATGAAAAGTGTT | 0.883 |
| AGCCCTGGTTTATCTGTTGTCAAACCCACA | 0.589 |
| TATGTGATCAGATGTGGACAATCATTGTGC | 1.4 |
| GCAAAGTTCACCAGGAAGCAAGACAATGCA | -1.43 |
| TTTGGAGCCGGTGTCAGTTTCCACTCTGCC | -1.46 |
| AATGTAAACATCAAGGAAGAGAACTCCCTA | -1.32 |
| AGGGACTTTGATCTTCTTACCCCTTTGCTG | 3.3 |
| AAATAAGAATGACCAGGAGTTTGGGATCAG | -1.26 |
| AAAGAACCATGAGAGGGTTAAAAACCAGAA | -1.07 |
| GCAAAGGTTAGCAAGGGCCCCCACTAGAGA | 1.32 |
| TTTCAAGAATCTAATCAGGCCTCCCTCCCT | 3.78 |
| ATGTTCCCACGAAACCCTAAACCTGCAAAC | -1.36 |
| TGTTATCAGTTAATTGCATTCTTTGATGTG | 1.54 |
| GACTAGCCACAATAGGCCCTCCCAGCCTAT | -1.37 |
| GGTTGTGTTTGCAGTGAGTAACCTTGAGGA | 1.72 |
| AAGGAAGAGGGAAGACCAAAGGCCAAAGAG | -1.31 |
| AAAGGAATGCGCCTGAACTGACTGCATTCC | -1.22 |
| AAATGCAGGTGAGAGGCCTCTAAGCATAAC | -1.12 |
| CCTTCCCTTTCATGTTGAACGTCTTCAGAA | 1.35 |
| CTGCTTCGGCCTTTGACCTCGTGATAACGA | 5.83 |

| Sequence | binding signal (log2 normalized intensity) |
| --- | --- |
| GCAAGACTTTGGCCCTGCAGACTTTGCCTC | 3.9 |
| GATGAAGGTTATTCTTTCCCCTCCCTTCCA | 3.35 |
| GCTGAGAGATTCCTCTGCACAATAAAACTT | -1.31 |
| AGTTCAGGAGGGAGGAGCATTTCACAGAAA | -1.2 |
| CTGCCTTGGAGGTGAGGGTTACAGGTGGAC | 1.59 |
| TGGAAACAACTGTGCAGGTGACAGAATTCC | -1.29 |
| AATCTCTCATCTGCCTTGTGATTTCCAAAA | 0.701 |
| ATTAATATATTCATAACACTTGTATGACCT | 3.27 |
| GAAACATCCACATGTGGGTCCAAAGAACAT | 3.82 |
| CACTGCAGGATTGGAGATCTGAACTCAAGC | 0.997 |
| GAGTTAATGCTGGAGTTAAAGCTTTGAGGA | -1.29 |
| TTTCCCTGGTCGACCTCCCCGTCACCCTCC | 4.36 |
| TCGCCTCCACCTGCACCATTCTTGTCCTTT | 2.66 |
| CTACCTTTGGACTTCTCATTACATGGGACA | 3.1 |
| CACAGGATTTAAAGAATTCCAGACAATCTG | -1.31 |
| GCTTATGCATGGGAGATCTTCAGTAAGAGG | 0.414 |
| ACCCCTCCACTGGACAGCAGCTACATAAGG | 1.83 |
| CCTGGATAAGCCAGATAATTTGTGCAACAT | -0.991 |
| TAGAAAAGAGTTAAAAAAAAAAAAAACTAT | -1.27 |
| AGGTGACTTGCCCAGACACACCTGCAATGG | -1.16 |
| AACTCTCAGTTTGGCTCTTATGTCCCTCCT | 0.947 |
| AGCCAAGTTTTGCAACATACTGAAAAAGGG | -1.3 |
| GCAGAAACAAATACAGACACACCTAGGGAG | -1.46 |
